Results reported in patent US4305940A, “Benzamides with local anaesthetic and antiarrhythmic activity, salts, and method of preparation thereof and pharmaceutical compositions therefrom” (B.B.R. Boehringer Biochemia Robin S.p.A., priority 1979, dated 1981).
At least one read-out could not be matched to a standard name with certainty.

System: reflux of contraction of the lower limbs (lumbar plexus)
Experiment: Anaesthesia by conduction (lumbar plexus)
Format: in vivo, frogs
Details: reciprocal of the maximum time at 1%
Source text: Anaesthesia by conduction has been determined on frogs according to the method of E. Bulbring and I. Wajda (Journal Pharmacol. Exper. Ther., 85, 78, 1945). The compounds dissolved in physiological saline solution are introduced into the cavity obtained by a transversal incision in the abdomen and separating the viscera in order to expose the lumbar plexus. The period of time necessary to eliminate the reflux of contraction of the lower limbs stimulated by immersion of both posterior legs into hydrochloric acid of increasing concentration between 0.05-0.1-0.2 N for a period not in excess of ten seconds, at intervals of one minute is determined. The extent of anaesthesia of conduction has been determined by measuring the period of time required for each compound in three different concentrations, 0.2%-0.5%-1.0% in order to abolish the reflex of contraction with the concentration of hydrochloric acid indicated hereinabove.

Which “Conduction anaesthesia 1/t'max. (c = 1%)” value does the source give for `Cc1cccc(C)c1NC(=O)c1ccccc1CN1CCCC1` [Compound 4] here?
The value was 1.00.

For `CCN(CC)Cc1cccc(C(=O)Nc2c(C)cccc2C)c1` [Compound 2], which “Conduction anaesthesia 1/t'max. (c = 1%)” value is on record?
The value was 1.00.

For `Cc1cccc(C)c1NC(=O)c1ccccc1CN1CCCCC1` [Compound 7], which “Conduction anaesthesia 1/t'max. (c = 1%)” value is on record?
The value was 1.00.

For `Cc1cccc(C)c1NC(=O)c1cccc(CN2CCCCC2)c1` [Compound 8], which “Conduction anaesthesia 1/t'max. (c = 1%)” value is on record?
The value was 0.20.

`CCN(CC)Cc1ccccc1C(=O)Nc1c(C)cccc1Cl` [Compound 13] was tested. Which “Conduction anaesthesia 1/t'max. (c = 1%)” value did it give?
The value was 1.00.

How did the “Conduction anaesthesia 1/t'max. (c = 1%)” value turn out when `CCN(CC)Cc1ccccc1C(=O)Nc1c(C)cccc1C` [Compound 1, 2,6-Dimethylanilide of 2-diethylaminomethylbenzoic acid] was run?
The value was 0.33.

How did the “Conduction anaesthesia 1/t'max. (c = 1%)” value turn out when `Cc1cccc(C)c1NC(=O)c1ccc(CN2CCOCC2)cc1` [Compound 12] was run?
The value was 0.25.

`CCN(CC)Cc1ccccc1C(=O)Nc1c(C)cccc1C(=O)OC` [Compound 14] was tested. Which “Conduction anaesthesia 1/t'max. (c = 1%)” value did it give?
Its value is 0.20.

With `Cc1cccc(C)c1NC(=O)c1cccc(CN2CCCC2)c1` [Compound 5] as the molecule, how does the “Conduction anaesthesia 1/t'max. (c = 1%)” value read?
The value was 1.00.

For `Cc1cccc(C)c1NC(=O)c1cccc(CN2CCOCC2)c1` [Compound 11], which “Conduction anaesthesia 1/t'max. (c = 1%)” value is on record?
Its value is 0.11.

For `Cc1cccc(C)c1NC(=O)c1ccccc1CN1CCOCC1` [Compound 10], which “Conduction anaesthesia 1/t'max. (c = 1%)” value is on record?
Its value is 0.09.

How did the “Conduction anaesthesia 1/t'max. (c = 1%)” value turn out when `Cc1cccc(C)c1NC(=O)c1ccc(CN2CCCC2)cc1` [Compound 6] was run?
The value was 0.50.

Which “Conduction anaesthesia 1/t'max. (c = 1%)” value does the source give for `Cc1cccc(C)c1NC(=O)c1ccc(CN2CCCCC2)cc1` [Compound 9, 2,6-Dimethylanilide of 4-piperidinomethyl-benzoic acid] here?
Its value is 0.09.

How did the “Conduction anaesthesia 1/t'max. (c = 1%)” value turn out when `CCN(CC)Cc1ccc(C(=O)Nc2c(C)cccc2C)cc1` [Compound 3] was run?
Its value is 0.11.
